# Source: PubChem BioAssay AID1466 (National Center for Advancing Translational Sciences (NCATS), 2008)
# The campaign covered roughly 200,000 compounds. About 10 (0.005%) were called active. Inconclusive results, whose numbers are uncertain, are shown with a selection of clear calls. Calls come from the whole dose curve; as a rule, active = well fitted inhibition curve with a large enough effect; inconclusive = small, poorly fitted or top-dose-only effect, or effect the other way, or another doubt; inactive = no such curve, though single readings can be large or run the other way. Potencies of inconclusive entries are left out as doubtful fits.
# Biological target: Lysosomal alpha-glucosidase (Homo sapiens) (UniProt P10253)
# Assay: qHTS Assay for Inhibitors of Human alpha-Glucosidase as a Potential Chaperone Treatment of Pompe Disease;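 for activity change, negative = inhibition: plate controls were uninhibited enzyme wells for no effect and no-enzyme background for full effect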
# Details: purified human GAA, 4-MU-alpha-glucoside fluorescence; activity change, negative = inhibition: at 76.9 µM (top of the series) unless noted
# Procedure, shortened: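 Human enzyme at 4 nM with 400 uM 4-methylumbelliferyl-alpha-D-pyranoside, citrate/phosphate buffer pH 5.0, 0.005% Tween-20, 20 min at room temperature. Compounds up to 77 uM. 4-MU fluorescence (Ex 365/Em 440) read after NaOH/glycine stop; AC50 from Hill fit.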
# Potency is the fitted concentration of half-maximal effect; tags give direction and shape of the fitted curve.
SMILES,Potency,"activity change, negative = inhibition"
COc1ccccc1C(=O)Oc1cc(C)[nH]c(=O)c1[N+](=O)[O-],inactive,
N#CC(=C1CCCC1)c1nc(-c2ccc(Cl)cc2)cs1,,inconclusive: -21.1% [inhibitor]
CCCCn1c(=NC(=O)c2cccnc2)c(C#N)cc2c(=O)n3cccc(C)c3nc21,"inconclusive [activator, partial curve]",
CCOC(=O)C1C(=O)OC(C)(C)C1C(C)C(=O)c1ccc(C)cc1 (stereo not drawn),"inconclusive [inhibitor, full curve, poor fit]",
CC(=O)Cc1cc(O)c2ccccc2c1OC(=O)c1ccccc1,"inconclusive [inhibitor, single point]",
CCC1(C)Cc2c(sc3nc(SC)[nH]c(=O)c23)CO1 (stereo not drawn),,inactive: 0.866% [at 15.4 µM]
O=c1c2c(-c3ccc(Cl)cc3)csc2nc2n1CCC2,"inconclusive [inhibitor, single point]",
CCn1c(SCC(=O)NCc2ccccc2)nnc1-c1cccnc1,,inconclusive: 12.2% [activator]
Cc1ccc(Cl)cc1NC(=S)N(Cc1cccs1)C1CCCC1,"inconclusive [inhibitor, single point]",
COc1ccc(C(=O)c2ccc(OC)c3cccc(O)c23)cc1OC,,inconclusive: -16.1% [inhibitor]
CC(=O)Cc1nsc(Nc2ccc(Cl)cc2)n1,,inconclusive: 17% [activator]
Cn1c(=O)n(C)c2cc([N+](=O)[O-])c(N3CCN(C(=O)c4ccccc4Br)CC3)cc21,,inconclusive: 16.9% [activator]
C=CCNC(=O)c1cc2c(=O)n3cc(C)ccc3nc2nc1NCC1CCCO1 (stereo not drawn),"inconclusive [activator, partial curve]",
Cc1ccc(NC(=O)CCC(=O)OCC(F)(F)C(F)F)cc1,"inconclusive [inhibitor, full curve, poor fit]",
CC12CN3CC(C)(CN(C1)C3c1c[nH]c3ccccc13)C2=O (stereo not drawn),,inconclusive: 16.2% [activator]
CCOc1ccc(NC(=O)c2nsc(Cl)c2Cl)cc1,,inconclusive: 18.5% [activator]
CCOc1ccc(-c2cc3nc(C4CCN(C(=O)OC(C)(C)C)CC4)c(C(=O)O)cn3n2)cc1,"inconclusive [inhibitor, full curve, poor fit]",
Cc1ccc(-c2nnc(SCC(=O)NNC(=O)COc3cccc4ccccc34)n2C)cc1,"inconclusive [inhibitor, single point]",
CC1CCN(C(=O)/C(=C\c2cccs2)NC(=O)c2ccccc2)CC1,,inconclusive: 16.1% [activator]
CC(=O)Nc1ccc(S(=O)(=O)N2CCN(CC(=O)NC3CCCC3)CC2)cc1,,inconclusive: -20.6% [inhibitor]
COc1ccccc1N1CCN(C(=O)/C=C/c2ccco2)CC1,"inconclusive [inhibitor, single point]",

SMILES,Potency,"activity change, negative = inhibition"
N#Cc1ccccc1NC(=O)COC(=O)/C=C/c1cn(-c2ccccc2)nc1-c1ccc(Cl)cc1,,inconclusive: 18.1% [activator]
Cc1occc1C(=O)Nc1ccc(S(N)(=O)=O)cc1,,inconclusive: 17.4% [activator]
CC(C)CN1CCN(Cc2cccc3ncccc23)CC1CCO (stereo not drawn),,inconclusive: 5.19% [activator]
O=C(NCc1ccco1)C1CCN(S(=O)(=O)c2ccc(-n3cnnn3)cc2)CC1,"inconclusive [inhibitor, single point]",
O=C(N/N=C\C=C\c1ccc2c(c1)OCO2)C1COc2cc3ccccc3cc2O1 (stereo not drawn),"inconclusive [inhibitor, single point]",
Oc1ccc2ccccc2c1/C=N/c1nc2c(s1)CCCC2,"inconclusive [inhibitor, full curve]",
O=[N+]([O-])c1ccccc1S(=O)(=O)n1cnc2ccccc21,"inconclusive [inhibitor, partial curve, poor fit]",
COc1cccc(C2C(C#N)=C(C)NC3=C2C(=O)CC(C)(C)C3)c1 (stereo not drawn),"inconclusive [activator, partial curve]",
O=S(=O)(c1cccc(-c2cn3cccnc3n2)c1)N1CCCCCC1,"inconclusive [activator, partial curve]",
COc1cc(CNCC(C)C)c(Br)cc1OCC(=O)NCc1ccccc1,"inconclusive [inhibitor, single point]",
COc1ccc(Oc2ccccc2/C=C/C(=O)O)cc1,"inconclusive [inhibitor, single point]",
COc1cc(Cl)c([C@@H]2C[C@H]3CN(c4ccccc4)C(=O)[C@]34CCCN24)cc1OC,,inconclusive: 15.6% [activator]
Cc1ccccc1Nc1nc(N)nc(CSc2nnc(-c3ccccc3)n2C)n1,"inconclusive [inhibitor, single point]",
CCN(CC)c1ccc(NC(=O)COC(=O)CCC(=O)c2ccc(F)cc2)cc1,"inconclusive [inhibitor, single point]",
CC(C)Nc1nc(NC(C)C)nc(Nn2cnnc2)n1,"inconclusive [inhibitor, single point]",
Cc1ccc2nc3c(cc(C#N)c(=O)n3-c3nccs3)c(=O)n2c1,"inconclusive [activator, partial curve]",
Cc1cccc(OCC(=O)Nc2ccc(N3CCN(C(=O)c4ccco4)CC3)cc2)c1C,"inconclusive [inhibitor, single point]",
CCN1c2ccccc2-c2nc3ccccc3n2C1c1ccco1 (stereo not drawn),"inconclusive [activator, partial curve]",
CCc1ccc(-c2cc(C(F)(F)F)n3nc(C(=O)Nc4cnn(Cc5ccccc5C)c4)cc3n2)s1,"inconclusive [activator, full curve, poor fit]",
CC(NC(=O)C1CCCN1S(=O)(=O)c1cccc2cccnc12)c1ccccc1 (stereo not drawn),"inconclusive [inhibitor, partial curve]",
CC(C)(O)[C@@H]1Cc2c(ccc3ccc(=O)oc23)O1,"inconclusive [activator, single point]",

SMILES,Potency,"activity change, negative = inhibition"
COc1cccc(N(C(=O)Cn2nnc(-c3ccc(C)o3)n2)C(C(=O)NC(C)(C)C)c2cccs2)c1 (stereo not drawn),"inconclusive [inhibitor, full curve]",
Cc1ccc(NC(=O)C2CCN(S(=O)(=O)c3cccs3)CC2)cc1,"inconclusive [inhibitor, single point]",
Cc1ccc(-n2c(=O)c(C#N)cc3c(=O)n4cccc(C)c4nc32)cc1,"inconclusive [activator, partial curve]",
O=c1cc(N2CCC(Cc3ccccc3)CC2)[nH]c(=O)n1C1CCCCC1,"inconclusive [inhibitor, single point]",
CCC1(C)Cc2c(sc3[nH]c(=O)[nH]c(=O)c23)CS1 (stereo not drawn),"inconclusive [activator, partial curve]",
Cc1cccc(S(=O)(=O)Nc2ccc(C)c3c2OC(C)(C)C3)c1,inactive,
CC1(C)CC(=O)C2=C(C1)Nc1[nH]c(=S)[nH]c(=O)c1C2c1ccccc1 (stereo not drawn),"inconclusive [inhibitor, full curve, poor fit]",
C=CCN(C(=O)CNC(=O)c1ccco1)C(C(=O)NC1CCCCC1)c1ccc(OC)cc1 (stereo not drawn),"inconclusive [inhibitor, single point]",
COc1ccc(/C=C\C(=O)c2c(O)ccc3c(C)cc(=O)oc23)cc1OC,"inconclusive [inhibitor, single point]",
O=C(COc1ccc(S(=O)(=O)N2CCCC2)cc1Cl)N1CCN(c2ccccc2)CC1,"inconclusive [inhibitor, full curve, poor fit]",
Cc1ccccc1CCN(CC(=O)NC1CCCCC1)C(=O)c1csnn1,,inconclusive: 5.53% [activator]
CCC(C)NC(=O)C1CCN(S(=O)(=O)c2ccc(OC)cc2)CC1 (stereo not drawn),"inconclusive [inhibitor, single point]",
COc1cc(C(=O)N(Cc2cccnc2)Cc2cc3cc4c(cc3[nH]c2=O)OCCO4)cc(OC)c1OC,"inconclusive [activator, partial curve]",
COc1ccc(NC(=O)C(c2ccc(OC)cc2)N(Cc2ccco2)C(=O)CC2NC(=O)NC2=O)cc1 (stereo not drawn),"inconclusive [inhibitor, single point]",
CCCN(CCC)C1CC(=O)N(Cc2ccccc2)C1=O (stereo not drawn),"inconclusive [inhibitor, full curve, poor fit]",
Oc1ccc(-c2nc3ccccc3s2)cc1,"inconclusive [activator, partial curve]",
CN1CCN(C(=O)c2cccc(COc3cc(Cl)ccc3Cl)c2)CC1,"inconclusive [inhibitor, single point]",
CCCC(=O)NCCc1ccc(S(N)(=O)=O)cc1,,inconclusive: -15.1% [inhibitor]
O=C(Nc1nccs1)C1CCN(S(=O)(=O)c2c(Cl)cccc2Cl)CC1,"inconclusive [inhibitor, partial curve]",
Cc1cc(-c2nn(-c3ccccc3F)cc2CN2CCCC(C(N)=O)C2)c(C)s1 (stereo not drawn),,inconclusive: 7.96% [activator]
Cc1nc2c(F)c(F)c(C(F)(F)F)c(F)c2[nH]1,,inconclusive: -15.3% [inhibitor]
